Reference: PubChem BioAssay AID624173 (National Center for Advancing Translational Sciences (NCATS), 2012)
Hit rate of the full screen: of about 410,000 compounds, about 490 (0.12%) were called active. The shares of active, inactive and inconclusive entries below differ from those in the screen. Calls come from the whole dose curve; as a rule, active = well fitted inhibition curve with a large enough effect; inconclusive = small, poorly fitted or top-dose-only effect; inactive = flat fitted curve, though single readings scatter. A potency beside an inconclusive call is a rough fit, not a confirmed value.

Each compound was assayed against pyruvate kinase (Trypanosoma brucei) (UniProt Q57TT1) (assay: qHTS of Trypanosoma Brucei Inhibitors). Details: TbPYK enzyme, Kinase-Glo Plus ATP luminescence, 45 min; series mostly up to 76.8 µM.
How it was run: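 Luminescence from Kinase-Glo Plus, added after a 45-minute room-temperature reaction, served as the end-point read-out. The enzyme and substrate were preincubated with compound before ADP (130 uM final) initiated turnover. Concentration-effect curves came from normalized qHTS data.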
Note: nearly all actives have a fitted effect of over 50% in size.
Potency is the fitted concentration of half-maximal effect; tags give direction and shape of the fitted curve.

Row | Structure (SMILES) | Potency
1 | CCCCc1c(C)nc(Nc2ccc(OC)cc2)[nH]c1=O | inactive
2 | C=CCN=c1scc(-c2ccco2)n1/N=C/c1ccc(O)c(O)c1O | inconclusive: 20 µM [inhibitor, partial curve, poor fit]
3 | CCc1cc2cc(C)cc(C)c2[nH]c1=S | active: 11.2 µM
4 | COc1ccc(N2C(=O)/C(=C/c3ccc(C)o3)C(=O)NC2=S)cc1 | inconclusive: 20 µM [inhibitor, partial curve, poor fit]
5 | COC(CNC(=O)c1ccc(Cn2c(=S)[nH]c3cc4c(cc3c2=O)OCO4)cc1)OC | inconclusive: 31.6 µM [inhibitor, partial curve]
6 | COc1cccc(NC(=O)c2ccc3c(O)c(S(=O)(=O)c4ccccc4)c(=O)[nH]c3c2)c1 | inconclusive: 39.8 µM [inhibitor, partial curve, poor fit]
7 | CC(/C=N/N1CCN(c2ccccc2)CC1)=C\c1ccco1 | inconclusive: 39.8 µM [inhibitor, partial curve, poor fit]
8 | CCc1cccc(CC)c1-n1c(-c2cccnc2)n[nH]c1=S | inconclusive: 3.98 µM [inhibitor, partial curve, poor fit]
9 | CCCC(=O)N1CCCC(c2cc(C(=O)Nc3ccccc3)no2)C1 (stereo not drawn) | inconclusive: 25.1 µM [inhibitor, single point]
10 | C[N+]1(CC(=O)OCCCc2ccccc2)CCOCC1 | inconclusive: 28.2 µM [inhibitor, single point]
11 | Cc1[nH]c(=S)c(C#N)c(-c2ccccc2)c1C(=O)Nc1ccccc1 | inconclusive: 14.1 µM [inhibitor, partial curve]
12 | COc1cc(NC(=O)c2cc3ccccc3o2)ccc1NC(=O)c1ccco1 | inactive
13 | Cc1ccc(-c2c3c([nH]c(=S)c2C#N)CCCC3)o1 | inconclusive: 14.1 µM [inhibitor, partial curve]
14 | COc1ccc(OC)c(NC(=O)Nc2nnc(COCCO)s2)c1 | inactive
15 | O=C(Nc1ccc2[nH]c(=S)sc2c1)c1ccccc1 | inconclusive: 12.6 µM [inhibitor, partial curve, poor fit]
16 | CCc1nnc(NC(=O)CN2CCN(c3nc(-c4ccccc4)cs3)CC2)s1 | inconclusive: 28.2 µM [inhibitor, partial curve, poor fit]
17 | COc1ccc(S(=O)(=O)NNc2nc(C)cc(C)n2)cc1Br | inconclusive: 35.5 µM [inhibitor, partial curve]
18 | COc1ccc(S(=O)(=O)n2oc(=O)cc2-c2ccccc2)cc1OC | inconclusive: 44.7 µM [inhibitor, single point]
19 | COc1cc(C=C2C(=O)c3ccccc3C2=O)ccc1O | inconclusive: 39.8 µM [inhibitor, single point]
20 | CC(C)(C)c1ccc(O)c(N=Cc2cc(Br)ccc2O)c1 | inconclusive: 15.8 µM [inhibitor, partial curve]
21 | O=C(O)c1ccc(COc2ccc3ccccc3c2)o1 | inactive
22 | S=c1[nH]nc(C2CCCCC2)n1/N=C/c1ccncc1 | inconclusive: 3.16 µM [inhibitor, partial curve, poor fit]

Row | Structure (SMILES) | Potency
23 | Cn1c(=S)[nH]c2c(c1=O)C(C)(C)Cc1ccccc1-2 | inconclusive: 39.8 µM [inhibitor, single point]
24 | O=C(CN1CCN(c2ccc(O)cc2)CC1)Nc1cc(S(=O)(=O)N2CCCCC2)ccc1Cl | inconclusive: 20 µM [inhibitor, partial curve, poor fit]
25 | O=C(/C=C/Nc1ccc(F)cc1F)c1cccs1 | inconclusive: 39.8 µM [inhibitor, single point]
26 | Cc1ccc(CNc2cnccn2)cc1 | inconclusive: 6.31 µM [inhibitor, full curve]
27 | Cc1ccc(-c2cc(C(=O)N3CC(C)CC(C)C3)c3ccccc3n2)o1 (stereo not drawn) | inconclusive: 31.6 µM [inhibitor, partial curve]
28 | Cc1ccc(/C=C/C(=O)N2CCc3ccccc32)o1 | active: 20 µM
29 | COc1cccc(C(=O)CSc2nnc(CNS(C)(=O)=O)n2-c2ccc(C)cc2)c1 | inconclusive: 31.6 µM [inhibitor, partial curve]
30 | C=CCn1c(O)c(N=Nc2ccccc2[N+](=O)[O-])c2ccccc21 | inactive
31 | CCn1c(CSc2n[nH]c(N)n2)nc2cc(C(=O)O)ccc21 | inactive
32 | COCc1cc(C)nc(SCC(=O)Nc2ccccc2C)c1C#N | inconclusive: 50.1 µM [inhibitor, single point]
33 | COc1cc(C=C2C(=O)NC(=O)NC2=O)ccc1OCc1ccc([N+](=O)[O-])cc1 | inconclusive: 31.6 µM [inhibitor, partial curve, poor fit]
34 | Cc1ccsc1C(=O)N/N=C/c1ccc2c(c1)OCO2 | inconclusive: 20 µM [inhibitor, partial curve]
35 | COC(=O)/C(=N\Nc1ccccc1)Sc1nnc(-c2ccc(OC)cc2)n1C | inconclusive: 20 µM [inhibitor, partial curve, poor fit]
36 | COc1cccc(-c2cn(-c3cccc(C(F)(F)F)c3)c(=S)[nH]2)c1 | inconclusive: 1 µM [inhibitor, full curve, poor fit]
37 | O=C(NCc1ccco1)c1cc2ccc(O)cc2oc1=O | inconclusive: 35.5 µM [inhibitor, partial curve]
38 | C[C@H](CO)N1C[C@H](C)[C@@H](CN(C)C(=O)Nc2ccccc2)Oc2c(NC(=O)NC3CCCCC3)cccc2C1=O | inactive
39 | OC(CNc1ncnc2sccc12)c1ccccc1 (stereo not drawn) | inactive
40 | CN(C)C(=O)c1ccc(-c2nnc(OCc3nc4ccccc4n3C)c3ccccc23)cc1 | inactive
41 | S=c1ncc2[nH]c(=S)[nH]c2[nH]1 | inconclusive: 22.4 µM [inhibitor, partial curve, poor fit]
42 | S=c1nc(-c2ccccn2)c(-c2ccccn2)n[nH]1 | inconclusive: 31.6 µM [inhibitor, partial curve, poor fit]
43 | CCOC(=O)c1c(NC(=O)CSc2nnnn2-c2ccc(OC)cc2)sc(C)c1C | inconclusive: 12.6 µM [inhibitor, partial curve, poor fit]
